Results as given in PubChem BioAssay AID1963576 (National Center for Advancing Translational Sciences (NCATS), 2024).
About 60 (0.1%) of roughly 46,000 compounds were called active. Not shown: some 3% with an inconclusive outcome. The call rests on the fitted dose curve; in most records, active means well fitted inhibition curve with a large enough effect; inconclusive means small, poorly fitted or top-dose-only effect; inactive means no such curve, though single readings can be large or run the other way. This is one part of the list.

assay: Primary qHTS assay for Inhibitors of ovarian cancer metastasis using an organotypic tumor microenvironment (TME) model.; further: nearly all actives have a fitted effect of over 65% in size;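 on activity change, negative = inhibition: plate controls were DMSO wells for no effect and tomatine positive control wells for full effect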; conditions: SKOV3ip1-GFP adhesion/invasion on 3D omental model, fluorescence; series mostly up to 45.8 µM; activity change, negative = inhibition: at the top concentration
Procedure, shortened: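 qHTS, 4-pt dose (0.36-46 umol/L); SKOV3ip1-GFP, 1,200 cells/well, no FBS; primary omental fibroblast/mesothelial co-culture 48 h pre-grown; 2 h RT + 16 h 37 C; PBS wash, 4% PFA; GFP count 488/509 nm.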

Activity change, negative = inhibition, inactive:
O=C(NCc1cccs1)c1ccc2c(c1)N(Cc1cccc(F)c1)C(=O)c1ccccc1S2 1.79%, Cc1ccc(Cl)cc1NC(=O)CSc1nccn1C 6.17%, COC(=O)c1c(NC(=O)Cc2coc3cc(C)ccc23)sc2c1CCC2 -0.728%, Cc1cc(C)cc(NC(=O)CSc2nc(=O)n(CCN3CCOCC3)c3c2CCC3)c1 -5.24%, Cc1oc(-c2cccc(Cl)c2)nc1CS(=O)(=O)CC(=O)NC(C)CCc1ccccc1 (stereo not given) -9.23%, CCCCN(CC)C(=O)c1nn(C)c2c1CSc1ccccc1-2 3.77%, CCOc1ccccc1CNC(=O)c1ccc2c(c1)N(Cc1ccc(C)cc1)CCS2 -17.2%, CC(=O)c1cccc(NC(=O)CSc2nc(=O)n(Cc3ccco3)c3c2CCC3)c1 4.46%, COc1ccc(Cl)cc1NC(=O)C(C)Sc1nc2c(c(=O)[nH]1)CCCC2 (stereo not given) 3.18%, O=C(CCC1N=C2c3ccccc3N=C(SCc3ccc(F)cc3)N2C1=O)NCCc1ccccc1 (stereo not given) -15.4%, Cc1ccc(NC(=O)C2CCCN(C(=O)c3cnn(-c4ccc(F)cc4)c3-n3cccc3)C2)c(Cl)c1 (stereo not given) -1.31%, CC1(C)O[C@H]2[C@@H](O1)[C@@H](C(=O)Nc1ccccc1C(F)(F)F)O[C@@H]1OC(C)(C)O[C@@H]12 15%, O=C(NCCc1ccccc1Cl)C1CCN(c2nc3ccccc3nc2C(F)(F)F)CC1 -29.5%, CCc1ccccc1NS(=O)(=O)c1ccc2c(c1)CC(=O)N2 -20.7%, CC(=O)Nc1nonc1-c1nnc(SCc2ccccc2F)n1C -0.164%, COc1ccc(-c2cc(C(F)(F)F)n3nc(-c4ccccc4)cc3n2)cc1OC 9.54%, CCCCSc1nnc2n(-c3ccc(OC)cc3)c(=O)c3c4c(sc3n12)COC(C(C)C)C4 (stereo not given) -0.0854%, CC(=O)c1ccc(N2CCN(c3ncnc4c3c(-c3ccccc3)cn4-c3ccc(Cl)cc3)CC2)cc1 14.1%, Cc1ccc(/C=C/c2onc(C)c2S(=O)(=O)N2CCC(C(=O)Nc3ccccc3C(F)(F)F)CC2)cc1 -7.81%, COc1ccc(-n2c(=O)c3c(c4cc(OC)ccc4n3C)n(Cc3cccc(C)c3)c2=O)cc1 18.1%, Cc1cccc2c1N(Cc1ccccc1OCCC(C)C)C(=O)C2=O -4.95%, CC(=O)c1ccc(NC(=O)c2cc(C)nc3c2c(C)nn3-c2ccc(C)cc2)cc1 -0.787%, CC1=C(C(=O)Nc2ccc(C)cc2C)C(c2cccs2)n2nc(SCc3cccc(C)c3)nc2N1 (stereo not given) -4.08%, CNC(=O)CSc1cn(CC(=O)N2CCCCCC2)c2ccccc12 1.38%, CCC(C(=O)Nc1cccc(-c2nc3cccnc3s2)c1C)c1ccccc1 (stereo not given) -2.91%, COc1ccc(-n2cc(C(=O)NCCc3cc(OC)ccc3OC)c3ccccc3c2=O)cc1 -1.04%, O=C(CCOc1ccccc1)N(Cc1cccnc1)c1nc2ccc(Cl)cc2s1 -4.39%, COc1ccc(OC)c(NC(=O)CN2C(=O)CC(C)Sc3ccccc32)c1 (stereo not given) 7.28%, COc1ccc(CNC(=O)Cn2ccc3cc(S(=O)(=O)N4CCCCC4)ccc32)cc1OC -8.95%, Cc1ccc(-n2c(=O)c3c4c(sc3n(Cc3cc(=O)n5ccccc5n3)c2=O)CCC4)cc1C 5.82%, Cc1nc2nc(NC(=O)c3ccc(C(C)(C)C)cc3)[nH]n2c(=O)c1Cc1ccccc1 -6.74%, O=C(Nc1ccc(Br)cc1F)c1cc(S(=O)(=O)NC2CCCCC2)ccc1F 4.26%, Clc1ccccc1-c1nnc(COc2ccccc2)o1 27.1%, COc1cc(CN2CCN(S(=O)(=O)c3ccc(NC(C)=O)cc3)CC2)cc(OC)c1OC -4.8%, O=C1N(Cc2ccccc2Cl)c2ccccc2C1(O)c1c[nH]c2ccccc12 (stereo not given) 8.83%, Cc1ccc2oc(-c3ccc(C)c(NC(=O)C(C)(C)Oc4ccc(Cl)cc4)c3)nc2c1 -29%, COc1ccc(Cl)cc1NC(=O)N(C)CCc1c(C)nn(C)c1C -7.39%, CSc1ncc(C(=O)Nc2ccc(C)c(Cl)c2)c(-c2ccccc2)n1 -0.545%, CCOC(=O)c1cc(C)n(CC2CCC(C(=O)Nc3ccccc3OC)CC2)c1C (stereo not given) -3.13%, CC(=O)c1ccc(NS(=O)(=O)c2c(C)nc3scc(C)n3c2=O)cc1 1.59%, CCn1cc(C(=O)NCCc2ccc(OC)c(OC)c2)c(=O)c2cc(S(=O)(=O)N3CCCCCC3)ccc21 5.53%, CN(C)S(=O)(=O)c1ccc(C(=O)NCCSc2c(-c3ccccc3)[nH]c3ccccc23)cc1 -9.43%, COc1ccc(N(Cc2cc3cccc(C)c3[nH]c2=O)C(=O)c2cccc(Cl)c2)cc1 14.4%, CC1CCN(CC2CCN(C(=O)Nc3ccc(Br)cc3F)CC2)CC1 2.2%, O=C(C1CCN(S(=O)(=O)Cc2ccccc2)CC1)N1CCN(c2cccc(C(F)(F)F)c2)CC1 4.21%, COc1ccccc1CNC(=O)CN1C(=O)COc2ccc(S(=O)(=O)NC3CCCC3)cc21 6.66%, COC(=O)c1ccccc1NC(=O)c1sc2nc(C)cc(C)c2c1NC(=O)c1ccccc1OC 4.61%, CCOCCCN1C(=O)c2ccccc2CC1(C)C(=O)NC1CCCCC1 (stereo not given) -5.42%, Cc1noc(C)c1S(=O)(=O)N(CC(=O)NCCc1ccccc1)c1ccc(C(C)C)cc1 -14.9%, CCOC(=O)c1c(NC(=O)c2ccc(S(=O)(=O)N(C)C3CCCCC3)cc2)sc2c1CCN(C(C)C)C2 -0.597%, Cc1ccc(-c2cn3c(n2)sc2cc(C(=O)NCCC4=CCCCC4)ccc23)cc1 2.68%, COc1ccc(-c2nc(S(=O)(=O)c3ccc(Cl)cc3)c(NCc3ccccc3)o2)cc1 7.17%, COc1ccc(CNC(=O)CN2C(=O)CSc3ccc(S(=O)(=O)N4CCC(C)CC4)cc32)cc1 6.64%, CC1CCN(S(=O)(=O)c2nnc(NC(=O)c3cccc(Cl)c3)s2)CC1 0.329%, Cc1csc2nc(COc3cccc(NC(=O)c4ccccc4F)c3)cc(=O)n12 -9.85%, CCN(CC)CCCNc1ncnc2c1cnn2-c1ccc(C)c(C)c1 14.6%, Cc1nn(CC(=O)N2CCN(c3ccc(Cl)cc3)CC2)c(=O)c2cccn12 -4.81%, COc1ccc(OCC(O)Cn2c(NCCO)nc3c2c(=O)n(C)c(=O)n3C)cc1 (stereo not given) -4.13%, CCOC(=O)CSc1nc2c(sc3ccccc32)c(=O)n1CCO 0.925%, CCOc1ccc(NS(=O)(=O)c2ccc3c(c2)CCCN3C(=O)C2CCC2)cc1 3.09%, Cc1ccc(NC(=O)CSc2cn(CC(=O)N3CCCC3)c3ccccc23)cc1Cl -1.62%, Cc1ccc(-n2c(=O)c3c(c4cc(C)ccc4n3C)n(CC(=O)N3CCCC3)c2=O)cc1 -5.67%, Cc1ccc2c(=O)cc(C(=O)Nc3ccc(S(=O)(=O)Nc4ncccn4)cc3)oc2c1C -1.44%, Cc1cc(C)cc(NC(=O)Cn2cc(C(=O)C3CCCCC3)c3ccccc32)c1 5.7%

outcome, inactive:
Cc1ccccc1CNC(=O)C(C)N(c1ccccc1)S(C)(=O)=O (stereo not given), O=C(CSc1ccc(-c2cccs2)nn1)Nc1ccccc1C(F)(F)F, COc1ccc(-n2c(-c3ccco3)nc3c(cnn3-c3ccc(Cl)cc3)c2=O)cc1, COc1ccccc1NC(=O)c1c(NCc2ccc(C)o2)sc2c1CCCCC2, CCc1ccc(NC(=O)Cn2c(=O)n(CCC(C)C)c(=O)c3cccnc32)cc1, CCCc1nn2c(=O)cc(COC(=O)c3ccccc3NC(=O)COc3ccccc3)nc2s1, CCOC(=O)c1cc(S(=O)(=O)Nc2cc(F)ccc2C)[nH]n1, COc1ccc2c(c1)c(=O)c(S(=O)(=O)c1ccccc1)cn2CC(=O)Nc1ccc(C)c(Cl)c1, COc1cccc(CNC(=O)Cn2nc(-c3ccc(Cl)cc3)ccc2=O)c1, CC(C)CC(=O)Nc1nnc(S(=O)(=O)N(C)Cc2ccc(Cl)cc2)s1, CCOC(=O)c1c(C)[nH]c(C)c1S(=O)(=O)N1CCCC(C(=O)NCc2ccc(N(C)C)cc2)C1 (stereo not given), CCOc1ccc(NC(=O)CSc2oc(-c3ccc(F)cc3)nc2S(=O)(=O)c2ccc(C)cc2)cc1, Cc1ccc(CN(Cc2ccco2)C(=O)c2oc3cc(Br)ccc3c2C)cc1, CC1=C(C(=O)OCC2CCCCC2)C(c2ccc(Cl)cc2)CC(=O)N1 (stereo not given), COc1ccccc1NC(=O)c1oc2ccccc2c1NC(=O)COc1cccc(C)c1, CCc1ccc(N(CC)C(=O)Cn2nc(Cc3cccnc3)c3ccccc3c2=O)cc1, Cc1cccc(Cn2c(=O)n(Cc3ccccc3)c(=O)c3c2c2cc(C)ccc2n3C)c1, CCOC(=O)c1sc2ccccc2c1S(=O)(=O)Nc1ccc(C(C)=O)cc1, CC(=O)N1CCc2cc(S(=O)(=O)C(C)CC(=O)Nc3ccc(Br)c(C)c3)ccc21 (stereo not given), COc1ccc2nc(N(Cc3cccnc3)C(=O)Cc3ccccc3)sc2c1, Cc1cccc(-n2c(CNC(=O)c3cccc(F)c3)nnc2SCC(=O)Nc2ccccc2F)c1, COc1ccc(NC(=O)C2=C(C)Nc3ncnn3C2c2cccn2C)cc1 (stereo not given), Fc1cccc(-c2nnn3c2nc(NC2CCCCC2)c2ccccc23)c1, CC(=O)Nc1ccc(S(=O)(=O)NC2=NCN(CCO)CN2)cc1, COc1ccc(CNC(=O)C2CCC(CNS(=O)(=O)c3ccc4c(c3)CCCC(=O)N4)CC2)cc1 (stereo not given), COc1ccc(/C=C/C(=O)Nc2nc(-c3cccs3)ns2)cc1, Cc1ccc(CCNc2ncnc3onc(-c4ccc(Cl)cc4)c23)cc1, COc1ccc(NC(=O)CSc2nc3c(oc4ccccc43)c(=O)n2Cc2ccco2)cc1Cl, COc1ccccc1CNC(=O)c1cn(C)c2ccc(S(=O)(=O)N(C)C3CCCCC3)cc2c1=O, CCOc1ccc(NC(=O)c2c(NC(=O)Cc3ccccc3)sc3c2CCCCC3)cc1, O=C(CSC1=Nc2ccccc2N=C(c2ccc(F)cc2)C1)Nc1ccccc1
